This note sets out measurements from publication PMC10726135.

Some of the results follow. At the low end of the ranking the order means little. Measured with an extract: partners may take part in the binding.

The target of this test is T1, HNF4alpha2 (COS-7 nuclear extract) (UniProt P41235).
T1 sequence: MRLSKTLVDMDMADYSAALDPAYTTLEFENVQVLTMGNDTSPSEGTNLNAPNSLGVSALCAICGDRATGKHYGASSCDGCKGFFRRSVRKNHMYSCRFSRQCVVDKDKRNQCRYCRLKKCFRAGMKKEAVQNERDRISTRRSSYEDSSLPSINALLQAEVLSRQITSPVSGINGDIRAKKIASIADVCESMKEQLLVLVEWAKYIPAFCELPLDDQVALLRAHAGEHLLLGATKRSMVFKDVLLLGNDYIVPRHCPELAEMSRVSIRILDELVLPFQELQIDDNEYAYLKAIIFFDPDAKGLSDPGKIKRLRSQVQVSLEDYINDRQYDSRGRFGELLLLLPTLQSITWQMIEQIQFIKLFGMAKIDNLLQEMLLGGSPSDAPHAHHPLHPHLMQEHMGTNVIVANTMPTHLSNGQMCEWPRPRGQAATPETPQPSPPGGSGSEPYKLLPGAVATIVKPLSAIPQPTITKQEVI
Kind of test: protein-binding microarray. The note with it: COS-7 nuclear extract on double-stranded Agilent 4x180k PBM; binding buffer, salt, pH and temperature not given; high values mean tight binding; double strand, one strand shown; sequences stand for … in …GCCTAGGGAGATTAGAGTATCGGTCGA
Consider TTGCTTGTGAATGAAAGAGACTAGTATGTA, for which the binding signal (log2 normalized intensity) was determined as 0.445. Take GGCGCGCCTGCCCTTCGCTCCCCGACCTCC: the binding signal (log2 normalized intensity) worked out at 3.78. As to CTGAGCTAAGATAACCATCAAATCCTCGGA, the binding signal (log2 normalized intensity) is -1. As for ATATAAAAACTAACCATACTGAGTGTTGGT, the binding signal (log2 normalized intensity) was determined as 0.741. The figure for TGTGTGTGTGTGTGTGTGTGTGTGTATGCC is 3.17; for GTGGAGCAGCTTTCTCTGCACACACTCACA it is -1.09. Turning to GAGCCAAGGGAGCACAACCCGGGCGCACAA, the binding signal (log2 normalized intensity) was -1.05. Regarding CTGAATCAAGGTTTCTTTCCCTGGGGTCAA, the binding signal (log2 normalized intensity) was 3.59. The figure for AACGAGACCTTAGCCCTGAACAAACAGCTT is -1.09. Take TTGCAACCTTTGCCCTGTTGTCTTTGCCCA: the binding signal (log2 normalized intensity) was 4.15. With CAGGACCTGCCATTTTTTCAAACACCTGGG, the binding signal (log2 normalized intensity) is -1.09. As for GCCGGGAAAACCCGGAGCGGAGCATCCCTC, the figure is -1.17; as for TGCTCCCAAAGCAAACCTCCCCAGCCCAGG, 3.2. Regarding AATTTCAAATTTGCACCTGCCTTTAGGCAT, the binding signal (log2 normalized intensity) is -1.21. As to AGCTTAGGGTTCAAACTCCAGCTCTGATAC, the binding signal (log2 normalized intensity) was 2.77. On to TGTGATCTTGGGTAAGCCACTGAACTTTCA, for which the binding signal (log2 normalized intensity) came out at 2.38.

On to AAGGGTTCATCTGACTGGAAGAGCCTGCAA, for which the binding signal (log2 normalized intensity) was -1.06. As to GTGGGTAATTAACTCCCCCTGCCCCCAGGT, the binding signal (log2 normalized intensity) stood at 4.93.

Take CCATCAGTGGACTTTGACCTTGTTTTCAAT: the binding signal (log2 normalized intensity) was 9.03. Regarding ATGAGATAAGGTTCTGATAAAGTATCTTCA, the binding signal (log2 normalized intensity) was -0.711. The figure for ACACGAAACAAGTAGCAGTTCAAAAGTTCA is 1.1; for GCACTTGATGTTCCCCCTCCCTGGACTCCT it is 4.45. Regarding GGCAGGTCTCTCTCATTCACACCCTCAGCT, the binding signal (log2 normalized intensity) was -0.685.

Turning to GAGGGAGCCGCTGTGTGGGAAGAGGGCCTA, the binding signal (log2 normalized intensity) was -1.24.

TTCGAATATTTGTGATTTGAAATTTGTCCT: the binding signal (log2 normalized intensity) was determined as 2.51. Take AGTGGAGAAATAACATTAATGGAAATGCCT: the binding signal (log2 normalized intensity) was -0.84. As for TAAAACATCTTTGAAGAGCACAGGGTCAGC, the figure is 1.51. As for CAAGCTTGATCCAGGATCCTTCTTGACCAG, the binding signal (log2 normalized intensity) worked out at 0.316. As for GGAGGCAGGGAGACAACCTGGGTGTAGGTG, the binding signal (log2 normalized intensity) is -0.981. Regarding CGGGGAACCCAGCAAACCTGTCTCTCTGCA, the binding signal (log2 normalized intensity) was -1.06. With ACCCGGCGCGGACATAAAATTAAAGCGGAC, the binding signal (log2 normalized intensity) was -1.12. Regarding CCATCATGTGTACAGAGCTGAAGTTTGCAA, the binding signal (log2 normalized intensity) worked out at 0.852. For the sequence TAGCAAAGAAACTCGTGGCATTTTTGCCCC, the binding signal (log2 normalized intensity) was 2.39.

Take TCTGTCCTTTGTGTTTATGGCAAATTGATA: the binding signal (log2 normalized intensity) was found to be 1.81.

For the sequence GAACTGAGTTACTTGTGCTAAGTGCCATGT, the binding signal (log2 normalized intensity) came to 1.4. In the case of GTGATAAAACCCATGGACCTGACACCCGCT, the binding signal (log2 normalized intensity) was -1.06.

As for CCAAAGTCCGCCACTAGCAACAGCTGCAGT, the binding signal (log2 normalized intensity) is -1.21.

Turning to AGTGCAATGCCTAAACCAGGATCCAGTCCT, the binding signal (log2 normalized intensity) is -1.19. Regarding TCTTGGGTAAGCCACTGAACTTTCACTGCC, the binding signal (log2 normalized intensity) was found to be 1.22.

Turning to ACCTGAGTGCCAGAGCTGTGAAGACTGCAG, the binding signal (log2 normalized intensity) is -1.06.

For CCACACTCTCCCCACCCCCAAATCCCCTTC, the binding signal (log2 normalized intensity) was 5.78.

In the case of AAGCAGCGATGGAAGGGATGGGGTGCAAAC, the binding signal (log2 normalized intensity) was -1.18. For TCCCCGTCACCCTCCCCGCCACCCCCCAGA, the binding signal (log2 normalized intensity) was found to be 7.45. Turning to CAAGATAACAAGGCAAACTTTATCAAGACT, the binding signal (log2 normalized intensity) was -1.17.

For the sequence GGCCTCTCTGCAAATTTGCCTTGTCCTTAG, the binding signal (log2 normalized intensity) is 0.913. The figure for CTGTTTCCTACTGACCTCCGACCCCACGGA is 4.92; for GTCCAGGGCCCTTACCATCAATCACATTGT it is -1.07; for GCAAAGGTCACAAGAGGTGCTGTGTGCCTG it is 0.923. In the case of TCACACAATCAGTGTGTTGACATTTGAACC, the binding signal (log2 normalized intensity) stood at 3.77.

With CTCCTATCCTCTGATCCCCAGGTCATAAGA, the binding signal (log2 normalized intensity) stood at 2.06.

With CTGACCCTAGATGAGATAAGGTTCTGATAA, the binding signal (log2 normalized intensity) is -0.279.

For the sequence TCTCCAAGGTTATTATATTGTGGGTTCTTG, the binding signal (log2 normalized intensity) came out at 2.25.

Turning to AGGTTCAGTGAAGTAGTGTGTATGAAAGGC, the binding signal (log2 normalized intensity) stood at 0.788.

In the case of CCTTGCTGATAAAACAGCATGCGGTAAAGA, the binding signal (log2 normalized intensity) is -0.0345. As for TTGATAAACAGATAACTGGGGGCAAAGGTT, the binding signal (log2 normalized intensity) was found to be 6.16.

Consider TGATCCCTGACTCATAGCTCCAGAGCCACC, for which the binding signal (log2 normalized intensity) is -1.23.

On to ACTACTTATCTCCAAGACCCTTCATAGCTT, for which the binding signal (log2 normalized intensity) was -0.887. On to CAGCTAAAGCCTGCTCGTTGGGGGTCACCC, for which the binding signal (log2 normalized intensity) amounted to 2.97. With CTCGCCTGGCTCCCCACGTGGCAATCATTC, the binding signal (log2 normalized intensity) was -1.

As to AACTTTCAAGATGAAGCAAGAGTCCAAATT, the binding signal (log2 normalized intensity) stood at 2.14. As for CAACCCATCCAACTCCTTGAGAAGTACAAC, the figure is -0.342; as for ATTTGACAATTTACAGTGTTCAAAGGTAGC, 1.66; as for TTTCATTGAACTGCTGGGGGTAAAGTGGAT, 1.65. In the case of CTGACCTCCGACCCCACGGACTTAAATTGT, the binding signal (log2 normalized intensity) is 2.76. On to CTTTGAAAAAACCTGTTCAGCCAGATTCTC, for which the binding signal (log2 normalized intensity) was -1.03. Take ACCTGTACAGGGACTGTGTCAACAAGGTAT: the binding signal (log2 normalized intensity) was 0.801.

CTGAGGAAAAAAGTTTGAAAATGCCTTGAA: the binding signal (log2 normalized intensity) is 0.0239. As for AGCATTTTTGTATGCATAAGGCCTTGGACC, the binding signal (log2 normalized intensity) was 3.11.

Consider AATGAAACATTGTGACTTCCTCATGATCGC, for which the binding signal (log2 normalized intensity) came out at 0.419.

For the sequence CATAGTAACAACCTAAATCAGAGCACCATT, the binding signal (log2 normalized intensity) was -1.14. On to ACGGACTTAAATTGTGCTGTGTCAGAGTTG, for which the binding signal (log2 normalized intensity) worked out at 1.53. As for CTGCACCTTGACCTCCTGGGCCCAAGTGCT, the figure is 2.42.
